Results are given in words; binding and its absence hold for the method and conditions named. Some binding calls cover weakened binding; strength is not graded here. Sequences can lack the tags named with a protein.

Holding throughout (assay): two-hybrid; Gal4 system (Clontech), pGBKT7 (BD) and pGADT7 (AD) fusions, yeast strains AH109 and Y187; growth on -LWH (weak) and -LWHA (strong)
The target of assay [1] is T1, human DMC1, yeast two-hybrid fusion (human) (UniProt Q14565).
T1 sequence: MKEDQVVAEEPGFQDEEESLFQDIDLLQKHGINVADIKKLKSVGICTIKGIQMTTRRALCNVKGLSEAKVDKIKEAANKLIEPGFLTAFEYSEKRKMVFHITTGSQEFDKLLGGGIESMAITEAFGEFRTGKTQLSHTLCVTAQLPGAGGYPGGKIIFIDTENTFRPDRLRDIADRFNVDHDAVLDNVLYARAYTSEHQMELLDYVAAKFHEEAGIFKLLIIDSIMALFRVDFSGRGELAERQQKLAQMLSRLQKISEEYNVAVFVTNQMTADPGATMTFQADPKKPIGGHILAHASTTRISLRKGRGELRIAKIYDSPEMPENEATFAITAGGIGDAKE

In assay [2] the target is T2, human FLIP (C1ORF112), yeast two-hybrid fusion (human) (UniProt Q9NSG2).
T2 sequence: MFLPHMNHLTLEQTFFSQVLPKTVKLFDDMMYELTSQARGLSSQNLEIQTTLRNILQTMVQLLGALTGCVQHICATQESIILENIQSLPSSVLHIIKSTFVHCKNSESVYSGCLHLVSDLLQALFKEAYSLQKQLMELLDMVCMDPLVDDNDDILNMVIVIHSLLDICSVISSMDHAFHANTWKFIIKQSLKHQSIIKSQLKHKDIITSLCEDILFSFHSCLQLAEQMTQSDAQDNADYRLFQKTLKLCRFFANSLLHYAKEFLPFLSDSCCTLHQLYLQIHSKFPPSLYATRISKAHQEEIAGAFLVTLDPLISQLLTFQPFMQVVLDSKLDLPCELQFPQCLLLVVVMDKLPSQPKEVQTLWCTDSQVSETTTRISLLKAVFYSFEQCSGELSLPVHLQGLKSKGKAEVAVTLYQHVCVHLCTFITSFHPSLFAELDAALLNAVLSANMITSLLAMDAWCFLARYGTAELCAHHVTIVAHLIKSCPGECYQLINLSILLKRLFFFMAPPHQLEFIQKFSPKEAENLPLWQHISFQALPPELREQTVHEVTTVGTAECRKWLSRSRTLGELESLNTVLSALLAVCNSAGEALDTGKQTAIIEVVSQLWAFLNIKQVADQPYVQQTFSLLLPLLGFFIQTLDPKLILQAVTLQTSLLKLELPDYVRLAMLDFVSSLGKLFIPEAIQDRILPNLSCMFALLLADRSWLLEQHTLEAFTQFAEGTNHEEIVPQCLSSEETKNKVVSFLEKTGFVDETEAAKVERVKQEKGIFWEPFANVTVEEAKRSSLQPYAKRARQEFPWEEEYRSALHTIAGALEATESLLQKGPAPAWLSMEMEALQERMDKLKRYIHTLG

In assay [3] the target is T3, human FIGNL1, yeast two-hybrid fusion (human) (UniProt Q6PIW4).
T3 sequence: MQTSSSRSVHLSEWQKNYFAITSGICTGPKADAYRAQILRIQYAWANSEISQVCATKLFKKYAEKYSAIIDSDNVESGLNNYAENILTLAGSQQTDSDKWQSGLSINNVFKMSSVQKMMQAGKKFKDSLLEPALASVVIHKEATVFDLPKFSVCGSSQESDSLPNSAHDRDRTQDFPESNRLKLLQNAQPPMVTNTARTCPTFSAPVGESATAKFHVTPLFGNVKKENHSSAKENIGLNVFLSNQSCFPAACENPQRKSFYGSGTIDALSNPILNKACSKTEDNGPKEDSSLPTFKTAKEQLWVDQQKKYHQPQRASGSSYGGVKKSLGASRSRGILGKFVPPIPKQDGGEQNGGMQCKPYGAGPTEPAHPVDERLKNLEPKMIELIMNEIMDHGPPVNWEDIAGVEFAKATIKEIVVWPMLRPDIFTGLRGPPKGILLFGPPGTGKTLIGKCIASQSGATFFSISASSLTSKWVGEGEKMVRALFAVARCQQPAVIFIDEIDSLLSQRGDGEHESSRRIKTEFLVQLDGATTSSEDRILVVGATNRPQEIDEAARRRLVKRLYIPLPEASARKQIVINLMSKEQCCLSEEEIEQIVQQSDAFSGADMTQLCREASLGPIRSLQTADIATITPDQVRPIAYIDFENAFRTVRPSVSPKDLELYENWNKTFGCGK

Assay [4] has as its target T4, human RAD51, yeast two-hybrid fusion (human), Q06609.
T4 chain: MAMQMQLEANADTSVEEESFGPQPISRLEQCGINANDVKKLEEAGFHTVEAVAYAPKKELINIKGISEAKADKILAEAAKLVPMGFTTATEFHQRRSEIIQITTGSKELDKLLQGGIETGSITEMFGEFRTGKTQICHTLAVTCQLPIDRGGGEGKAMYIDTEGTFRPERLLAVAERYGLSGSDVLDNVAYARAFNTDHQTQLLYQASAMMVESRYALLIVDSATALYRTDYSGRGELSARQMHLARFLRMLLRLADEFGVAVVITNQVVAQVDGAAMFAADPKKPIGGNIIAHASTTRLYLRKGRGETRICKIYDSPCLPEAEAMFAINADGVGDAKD
The following applies: remark: other sources report otherwise.

For assay [5], the target named is T5, Arabidopsis RAD51, yeast two-hybrid fusion (Arabidopsis thaliana) (UniProt P94102).
T5 sequence: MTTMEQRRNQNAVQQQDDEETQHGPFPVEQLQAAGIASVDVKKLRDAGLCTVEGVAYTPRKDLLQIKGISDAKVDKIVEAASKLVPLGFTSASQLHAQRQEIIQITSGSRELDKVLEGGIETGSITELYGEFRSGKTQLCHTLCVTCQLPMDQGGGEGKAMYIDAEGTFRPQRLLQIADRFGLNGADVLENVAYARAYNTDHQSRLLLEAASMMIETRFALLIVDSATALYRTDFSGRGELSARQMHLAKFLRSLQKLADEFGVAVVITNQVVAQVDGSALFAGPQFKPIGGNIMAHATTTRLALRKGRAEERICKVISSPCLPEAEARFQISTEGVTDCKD

Assay [6] has as its target T6, Arabidopsis DMC1, yeast two-hybrid fusion (Arabidopsis thaliana) (UniProt Q39009).
T6 sequence: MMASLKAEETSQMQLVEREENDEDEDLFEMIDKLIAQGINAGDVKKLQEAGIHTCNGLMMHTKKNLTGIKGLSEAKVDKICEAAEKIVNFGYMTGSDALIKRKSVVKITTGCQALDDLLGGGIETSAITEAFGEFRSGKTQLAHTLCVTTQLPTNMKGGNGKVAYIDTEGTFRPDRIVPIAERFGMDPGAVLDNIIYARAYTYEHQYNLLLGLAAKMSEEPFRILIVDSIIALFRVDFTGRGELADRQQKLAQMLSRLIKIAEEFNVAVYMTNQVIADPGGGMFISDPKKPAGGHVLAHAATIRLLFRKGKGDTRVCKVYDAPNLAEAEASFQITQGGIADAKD

B1: human FIGNL1, yeast two-hybrid fusion (protein, UniProt Q6PIW4 1-674)
chain: T3 sequence
For B1, in assay [1], the binding result was “binds”.

B2: N-terminal region (1-290 amino acids) of hFIGNL1, yeast two-hybrid fusion (domain or fragment, UniProt Q6PIW4 1-290)
chain: MQTSSSRSVHLSEWQKNYFAITSGICTGPKADAYRAQILRIQYAWANSEISQVCATKLFKKYAEKYSAIIDSDNVESGLNNYAENILTLAGSQQTDSDKWQSGLSINNVFKMSSVQKMMQAGKKFKDSLLEPALASVVIHKEATVFDLPKFSVCGSSQESDSLPNSAHDRDRTQDFPESNRLKLLQNAQPPMVTNTARTCPTFSAPVGESATAKFHVTPLFGNVKKENHSSAKENIGLNVFLSNQSCFPAACENPQRKSFYGSGTIDALSNPILNKACSKTEDNGPKEDS
For B2, in assay [2], the binding result is “binds”.

B3: human FLIP (C1ORF112), yeast two-hybrid fusion (protein, UniProt Q9NSG2 1-853)
chain: T2 sequence
As to B3, the binding result in assay [2], in assay [3] and in assay [1] was “binds” in each case.

B4: human FLIP (C1ORF112), yeast two-hybrid fusion, Q9NSG2 1-853 (protein)
chain: T2 sequence
Turning to B4, the binding result in assay [4] is given as “no binding”.

B5: Arabidopsis FIGL1, full length, yeast two-hybrid fusion (protein, UniProt F4JEX5 1-680)
chain: MCGSVVSDSEREFEFHFWGFGHLGKEEERIMAGKRSSPFSSPLLRPPPEFLNVKEEGETETPCWRKEVDENLKRLQSLLFGADKFLEKSDFSSAQILGLRLLGFLDSRSVTDADRDFIGPIRREVASKIDLALEGLVSDSDRKAFELANTAPGAIFGSKGGFDVEKIKQSKYFGFHVSQSNGKGVKEMEERHDTDKLIPKAPKSMMQAKLTSLYGNSIGKPDNQRKTSVNNQDRASDECVIVERSHGFGFGTKRPHAETSSLANDGEVKEDGAPNGFVSAKIKLEMDVRQKRGSTESPSSCLSPQSDKNALGRGYGSRSGGLRRGYRSNFVPPVKTNGNNVGNLTSRIGGKTDDALDDSTRTCLEMLCGPDGELPEKLRNLEPRLIEHVSNEIMDRDPNVRWDDIAGLEHAKKCVTEMVIWPLLRPDIFKGCRSPGKGLLLFGPPGTGKTMIGKAIAGEAKATFFYISASSLTSKWIGEGEKLVRALFGVASCRQPAVIFVDEIDSLLSQRKSDGEHESSRRLKTQFLIEMEGFDSGSEQILLIGATNRPQELDEAARRRLTKRLYIPLPSSEARAWIIQNLLKKDGLFTLSDDDMNIICNLTEGYSGSDMKNLVKDATMGPLREALKRGIDITNLTKDDMRLVTLQDFKDALQEVRPSVSQNELGIYENWNNQFGSLSL
B5: the binding result in assay [5] and in assay [6] was “binds” throughout.

The values above are taken from publication PMC5897033.
